# Data from the supplement of paper PMC8728848.
# This is one part of the list.
# Experiments:
# Assay in all cases: glycan array binding signal (z-score within array); higher = stronger binding
# Conditions in all cases: glycan notation: IUPAC condensed, linker removed; mutation: E41G
# [1] = molecular target: Gal(b1-4)GlcNAc(b1-3)Gal(b1-4)GlcNAc(b1-2)Man(a1-3)[Gal(b1-4)GlcNAc(b1-3)Gal(b1-4)GlcNAc(b1-2)Man(a1-6)]Man(b1-4)GlcNAc(b1-4)[Fuc(a1-6)]GlcNAc
# In short: (§1)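 Glycan array data came from 3228 arrays in the Consortium for Functional Glycomics database, and only arrays with an available protein sequence were kept. Glycan names were put into IUPAC-condensed notation, and columns mapping to the same glycan were averaged. The binding signal is a within-array Z-score, averaged across arrays of one protein sequence run at different concentrations or buffers and across linkers. A negative Z-score can be read as non-binding.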
# [2] = molecular target: Gal(b1-4)GlcNAc(b1-3)Gal(b1-4)GlcNAc(b1-2)[Gal(b1-4)GlcNAc(b1-3)Gal(b1-4)GlcNAc(b1-6)]Man(a1-6)[Gal(b1-4)GlcNAc(b1-3)Gal(b1-4)GlcNAc(b1-2)Man(a1-3)]Man(b1-4)GlcNAc(b1-4)GlcNAc
# In short: as §1
# [3] = molecular target: Gal(b1-4)GlcNAc(b1-3)Gal(b1-4)GlcNAc(b1-2)[Gal(b1-4)GlcNAc(b1-3)Gal(b1-4)GlcNAc(b1-6)]Man(a1-6)[Gal(b1-4)GlcNAc(b1-3)Gal(b1-4)GlcNAc(b1-2)Man(a1-3)]Man(b1-4)GlcNAc(b1-4)[Fuc(a1-6)]GlcNAc
# In short: as §1
# [4] = molecular target: Gal(b1-4)GlcNAc(b1-3)Gal(b1-4)GlcNAc(b1-3)Gal(b1-4)GlcNAc
# In short: as §1
# [5] = molecular target: Gal(b1-4)GlcNAc(b1-3)Gal(b1-4)GlcNAc(b1-3)Gal(b1-4)GlcNAc(b1-2)Man(a1-3)[Gal(b1-4)GlcNAc(b1-3)Gal(b1-4)GlcNAc(b1-3)Gal(b1-4)GlcNAc(b1-2)Man(a1-6)]Man(b1-4)GlcNAc(b1-4)GlcNAc
# In short: as §1
# [6] = molecular target: Gal(b1-4)GlcNAc(b1-3)Gal(b1-4)GlcNAc(b1-3)Gal(b1-4)GlcNAc(b1-2)Man(a1-3)[Gal(b1-4)GlcNAc(b1-3)Gal(b1-4)GlcNAc(b1-3)Gal(b1-4)GlcNAc(b1-2)Man(a1-6)]Man(b1-4)GlcNAc(b1-4)[Fuc(a1-6)]GlcNAc
# In short: as §1
# [7] = molecular target: Gal(b1-4)GlcNAc(b1-3)Gal(b1-4)GlcNAc(b1-3)Gal(b1-4)GlcNAc(b1-2)[Gal(b1-4)GlcNAc(b1-3)Gal(b1-4)GlcNAc(b1-3)Gal(b1-4)GlcNAc(b1-6)]Man(a1-6)[Gal(b1-4)GlcNAc(b1-3)Gal(b1-4)GlcNAc(b1-3)Gal(b1-4)GlcNAc(b1-2)Man(a1-3)]Man(b1-4)GlcNAc(b1-4)[Fuc(a1-6)]GlcNAc
# In short: as §1
# [8] = molecular target: Gal(b1-4)GlcNAc(b1-3)Gal(b1-4)GlcNAc(b1-3)Gal(b1-4)GlcNAc(b1-3)Gal(b1-4)GlcNAc(b1-2)Man(a1-3)[Gal(b1-4)GlcNAc(b1-3)Gal(b1-4)GlcNAc(b1-3)Gal(b1-4)GlcNAc(b1-3)Gal(b1-4)GlcNAc(b1-2)Man(a1-6)]Man(b1-4)GlcNAc(b1-4)GlcNAc
# In short: as §1
# [9] = molecular target: Gal(b1-4)GlcNAc(b1-3)Gal(b1-4)GlcNAc(b1-3)Gal(b1-4)GlcNAc(b1-3)Gal(b1-4)GlcNAc(b1-2)Man(a1-3)[Gal(b1-4)GlcNAc(b1-3)Gal(b1-4)GlcNAc(b1-3)Gal(b1-4)GlcNAc(b1-3)Gal(b1-4)GlcNAc(b1-2)Man(a1-6)]Man(b1-4)GlcNAc(b1-4)[Fuc(a1-6)]GlcNAc
# In short: as §1
# [10] = molecular target: Gal(b1-4)GlcNAc(b1-3)Gal(b1-4)GlcNAc(b1-3)Gal(b1-4)GlcNAc(b1-3)Gal(b1-4)GlcNAc(b1-2)[Gal(b1-4)GlcNAc(b1-3)Gal(b1-4)GlcNAc(b1-3)Gal(b1-4)GlcNAc(b1-3)Gal(b1-4)GlcNAc(b1-6)]Man(a1-6)[Gal(b1-4)GlcNAc(b1-3)Gal(b1-4)GlcNAc(b1-3)Gal(b1-4)GlcNAc(b1-3)Gal(b1-4)GlcNAc(b1-2)Man(a1-3)]Man(b1-4)GlcNAc(b1-4)[Fuc(a1-6)]GlcNAc
# In short: as §1
# [11] = molecular target: Gal(b1-4)GlcNAc(b1-3)Gal(b1-4)GlcNAc(b1-3)Gal(b1-4)GlcNAc(b1-3)Gal(b1-4)GlcNAc(b1-3)Gal(b1-4)GlcNAc(b1-2)Man(a1-3)[Gal(b1-4)GlcNAc(b1-3)Gal(b1-4)GlcNAc(b1-3)Gal(b1-4)GlcNAc(b1-3)Gal(b1-4)GlcNAc(b1-3)Gal(b1-4)GlcNAc(b1-2)Man(a1-6)]Man(b1-4)GlcNAc(b1-4)GlcNAc
# In short: as §1
# [12] = molecular target: Gal(b1-4)GlcNAc(b1-3)Gal(b1-4)GlcNAc(b1-3)Gal(b1-4)GlcNAc(b1-3)Gal(b1-4)GlcNAc(b1-3)Gal(b1-4)GlcNAc(b1-2)Man(a1-3)[Gal(b1-4)GlcNAc(b1-3)Gal(b1-4)GlcNAc(b1-3)Gal(b1-4)GlcNAc(b1-3)Gal(b1-4)GlcNAc(b1-3)Gal(b1-4)GlcNAc(b1-2)Man(a1-6)]Man(b1-4)GlcNAc(b1-4)[Fuc(a1-6)]GlcNAc
# In short: as §1
# [13] = molecular target: Gal(b1-4)GlcNAc(b1-3)Gal(b1-4)GlcNAc(b1-3)Gal(b1-4)GlcNAc(b1-3)Gal(b1-4)GlcNAc(b1-3)Gal(b1-4)GlcNAc(b1-2)[Gal(b1-4)GlcNAc(b1-3)Gal(b1-4)GlcNAc(b1-3)Gal(b1-4)GlcNAc(b1-3)Gal(b1-4)GlcNAc(b1-3)Gal(b1-4)GlcNAc(b1-6)]Man(a1-6)[Gal(b1-4)GlcNAc(b1-3)Gal(b1-4)GlcNAc(b1-3)Gal(b1-4)GlcNAc(b1-3)Gal(b1-4)GlcNAc(b1-3)Gal(b1-4)GlcNAc(b1-2)Man(a1-3)]Man(b1-4)GlcNAc(b1-4)[Fuc(a1-6)]GlcNAc
# In short: as §1
# [14] = molecular target: Gal(b1-4)GlcNAc(b1-3)Gal(b1-4)GlcNAc(b1-3)Gal(b1-4)GlcNAc(b1-3)Gal(b1-4)GlcNAc(b1-3)Gal(b1-4)GlcNAc(b1-3)Gal(b1-4)GlcNAc(b1-2)Man(a1-3)[Gal(b1-4)GlcNAc(b1-3)Gal(b1-4)GlcNAc(b1-3)Gal(b1-4)GlcNAc(b1-3)Gal(b1-4)GlcNAc(b1-3)Gal(b1-4)GlcNAc(b1-3)Gal(b1-4)GlcNAc(b1-2)Man(a1-6)]Man(b1-4)GlcNAc(b1-4)GlcNAc
# In short: as §1
# [15] = molecular target: Gal(b1-4)GlcNAc(b1-3)Gal(b1-4)GlcNAc(b1-3)GalNAc
# In short: as §1
# [16] = molecular target: Gal(b1-4)GlcNAc(b1-3)Gal(b1-4)GlcNAc(b1-3)[Gal(b1-4)GlcNAc(b1-3)Gal(b1-4)GlcNAc(b1-6)]GalNAc
# In short: as §1
# [17] = molecular target: Gal(b1-4)GlcNAc(b1-3)Gal(b1-4)GlcNAc(b1-6)[Gal(b1-3)]GalNAc
# In short: as §1
# [18] = molecular target: Gal(b1-4)GlcNAc(b1-3)Gal(b1-4)[Fuc(a1-3)]GlcNAc(b1-3)Gal(b1-4)[Fuc(a1-3)]GlcNAc
# In short: as §1
# [19] = molecular target: Gal(b1-4)GlcNAc(b1-3)GalNAc
# In short: as §1
# [20] = molecular target: Gal(b1-4)GlcNAc(b1-3)[Fuc(a1-3)GlcNAc(b1-6)]Gal(b1-4)Glc
# In short: as §1
# [21] = molecular target: Gal(b1-4)GlcNAc(b1-3)[Gal(b1-4)GlcNAc(b1-6)]Gal(b1-4)GlcNAc
# In short: as §1
# [22] = molecular target: Gal(b1-4)GlcNAc(b1-3)[GlcNAc(b1-6)]Gal(b1-4)GlcNAc
# In short: as §1
binder,measurement,setting,value
CVN-E41G (protein) MHHHHHHENLYFQSGNFSQACYNSAIQGSVLTSTCIRTNGGYNTSSIDLNSVIGNVDGSLKWQGSNFIETCRNTQLAGSSELAAECKTRAQQFVSTKINLDDHIAAIDGTLKYE,glycan array binding signal (z-score),[1],-0.111
same,glycan array binding signal (z-score),[2],0.062
same,glycan array binding signal (z-score),[3],-0.115
same,glycan array binding signal (z-score),[4],-0.177
same,glycan array binding signal (z-score),[5],-0.115
same,glycan array binding signal (z-score),[6],-0.111
same,glycan array binding signal (z-score),[7],-0.129
same,glycan array binding signal (z-score),[8],-0.153
same,glycan array binding signal (z-score),[9],-0.113
same,glycan array binding signal (z-score),[10],-0.125
same,glycan array binding signal (z-score),[11],-0.19
same,glycan array binding signal (z-score),[12],0.22
same,glycan array binding signal (z-score),[13],-0.119
same,glycan array binding signal (z-score),[14],-0.106
same,glycan array binding signal (z-score),[15],-0.169
same,glycan array binding signal (z-score),[16],-0.138
same,glycan array binding signal (z-score),[17],-0.139
same,glycan array binding signal (z-score),[18],-0.099
same,glycan array binding signal (z-score),[19],-0.161
same,glycan array binding signal (z-score),[20],-0.171
same,glycan array binding signal (z-score),[21],-0.179
same,glycan array binding signal (z-score),[22],-0.065
